Assay results as given in the supplement of paper PMC3334620.
Whole data set: some 33,000 sequences, median “E-score (-0.5 to 0.5)” near -0.054, cut for the highest 2% near 0.35. The list shows a part of the results.

Target: T1, Stb5 (UniProt P38699)
T1 sequence: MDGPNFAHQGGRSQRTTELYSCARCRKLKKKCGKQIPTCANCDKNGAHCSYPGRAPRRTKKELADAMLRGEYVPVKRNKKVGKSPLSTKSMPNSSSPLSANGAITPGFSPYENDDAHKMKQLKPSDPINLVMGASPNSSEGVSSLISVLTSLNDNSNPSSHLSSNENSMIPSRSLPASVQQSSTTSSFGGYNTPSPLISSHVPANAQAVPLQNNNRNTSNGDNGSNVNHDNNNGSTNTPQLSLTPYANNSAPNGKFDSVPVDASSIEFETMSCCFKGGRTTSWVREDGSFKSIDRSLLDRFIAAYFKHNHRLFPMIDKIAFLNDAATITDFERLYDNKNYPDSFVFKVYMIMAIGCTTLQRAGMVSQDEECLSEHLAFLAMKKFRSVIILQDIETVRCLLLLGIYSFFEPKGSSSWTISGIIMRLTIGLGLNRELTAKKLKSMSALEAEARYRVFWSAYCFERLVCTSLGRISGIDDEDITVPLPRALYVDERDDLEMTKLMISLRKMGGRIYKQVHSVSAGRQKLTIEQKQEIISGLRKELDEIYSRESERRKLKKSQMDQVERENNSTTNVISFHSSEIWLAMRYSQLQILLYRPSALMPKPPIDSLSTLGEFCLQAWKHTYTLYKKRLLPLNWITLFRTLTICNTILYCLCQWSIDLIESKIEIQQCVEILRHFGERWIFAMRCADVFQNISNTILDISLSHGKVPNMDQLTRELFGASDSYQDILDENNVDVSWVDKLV
Assay: PBM E-score (8-mer binding enrichment) (E-score (-0.5 to 0.5)); higher = stronger / more preferred TF binding; most listed sequences are background and not binding sites
Settings: protein concentration: 200 nM; construct: GST-full length
In short: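 Yeast transcription factors, full-length or as DNA-binding domains, were expressed with a GST tag using PURExpress in vitro transcription/translation. At about 100-200 nM they were applied to universal all-10-mer Agilent arrays, double-stranded by primer extension on fresh or once-stripped slides. Fluorescent anti-GST detected bound protein, and masliner normalised the scans. E-scores for ungapped eight-base words, pooled with reverse complements, came from the Universal PBM Analysis Suite.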

Q: Which “PBM E-score” value does the source give for CGCAACTC here?
A: -0.0694

Q: Which “PBM E-score” value does the source give for GCGAGTCA here?
A: -0.043

Q: With TAGCACCA as the sequence, how does the “PBM E-score” value read?
A: 0.126

Q: For CTCGCGCC, which “PBM E-score” value is on record?
A: 0.0233

Q: How did the “PBM E-score” value turn out when AGCGACTA was run?
A: -0.228

Q: ACATCCTA was tested. Which “PBM E-score” value did it give?
A: -0.0987

Q: How did the “PBM E-score” value turn out when CAAGGCTA was run?
A: -0.0878

Q: Which “PBM E-score” value does the source give for ACTCTTTA here?
A: -0.166

Q: Which “PBM E-score” value does the source give for GTGCGTGA here?
A: 0.0894

Q: For AATGCGTA, which “PBM E-score” value is on record?
A: 0.0227

Q: For CCAGCGAC, which “PBM E-score” value is on record?
A: -0.0365

Q: For AAAAGACC, which “PBM E-score” value is on record?
A: 0.247

Q: Which “PBM E-score” value does the source give for CATGCAAC here?
A: -0.0686

Q: With AGTATAGG as the sequence, how does the “PBM E-score” value read?
A: -0.0702

Q: For CTAATAAC, which “PBM E-score” value is on record?
A: -0.0301

Q: With ATGCCGCC as the sequence, how does the “PBM E-score” value read?
A: 0.423

Q: CTTGCATC was tested. Which “PBM E-score” value did it give?
A: -0.146

Q: How did the “PBM E-score” value turn out when GGTAAGAC was run?
A: -0.0134

Q: Which “PBM E-score” value does the source give for CTCAAATA here?
A: -0.067

Q: ACAAGGCC was tested. Which “PBM E-score” value did it give?
A: 0.0517

Q: CTGATTTA was tested. Which “PBM E-score” value did it give?
A: 0.16

Q: For CTTATACA, which “PBM E-score” value is on record?
A: -0.0552

Q: Which “PBM E-score” value does the source give for AGCTGGAT here?
A: -0.229

Q: AAACTGGT was tested. Which “PBM E-score” value did it give?
A: 0.0745

Q: With GACACTGA as the sequence, how does the “PBM E-score” value read?
A: -0.0784

Q: CCTTGAAC was tested. Which “PBM E-score” value did it give?
A: -0.221

Q: With ACCAATCC as the sequence, how does the “PBM E-score” value read?
A: -0.0989

Q: For GAGTGTAC, which “PBM E-score” value is on record?
A: -0.0578

Q: GTAGCACA was tested. Which “PBM E-score” value did it give?
A: -0.13

Q: AGAGTTTA was tested. Which “PBM E-score” value did it give?
A: -0.0332

Q: How did the “PBM E-score” value turn out when CACGTCCG was run?
A: 0.12

Q: With AGAGACAT as the sequence, how does the “PBM E-score” value read?
A: -0.151

Q: How did the “PBM E-score” value turn out when AGTGACGA was run?
A: -0.191

Q: For CGGACGGA, which “PBM E-score” value is on record?
A: 0.322

Q: With GGGGTTAA as the sequence, how does the “PBM E-score” value read?
A: 0.404

Q: How did the “PBM E-score” value turn out when ATGTTCCG was run?
A: 0.249

Q: With AACCGGAT as the sequence, how does the “PBM E-score” value read?
A: 0.161

Q: For ACAATTAG, which “PBM E-score” value is on record?
A: -0.156

Q: With CCCGCACC as the sequence, how does the “PBM E-score” value read?
A: 0.151

Q: For GATCATCC, which “PBM E-score” value is on record?
A: 0.122

Q: AAGGGCCC was tested. Which “PBM E-score” value did it give?
A: -0.0192

Q: Which “PBM E-score” value does the source give for ATCACGCG here?
A: -0.0331

Q: Which “PBM E-score” value does the source give for AAAAGGTG here?
A: -0.019

Q: For ATACTAGG, which “PBM E-score” value is on record?
A: -0.0527

Q: For GATGATAA, which “PBM E-score” value is on record?
A: 0.0422

Q: AACTGAGA was tested. Which “PBM E-score” value did it give?
A: -0.153

Q: For ATTCAAGG, which “PBM E-score” value is on record?
A: -0.326

Q: How did the “PBM E-score” value turn out when GGGCAACA was run?
A: -0.0751

Q: How did the “PBM E-score” value turn out when CACAAGCA was run?
A: -0.245

Q: With ACCAGCGT as the sequence, how does the “PBM E-score” value read?
A: -0.257

Q: Which “PBM E-score” value does the source give for CCCAATCG here?
A: -0.061

Q: How did the “PBM E-score” value turn out when AGCGTACA was run?
A: -0.255

Q: ATCATGGG was tested. Which “PBM E-score” value did it give?
A: -0.0628

Q: For AGAAGTTA, which “PBM E-score” value is on record?
A: -0.244

Q: How did the “PBM E-score” value turn out when AGGCCCGG was run?
A: 0.275

Q: How did the “PBM E-score” value turn out when CCCCCGAG was run?
A: 0.0373

Q: With CATCTTGC as the sequence, how does the “PBM E-score” value read?
A: -0.214

Q: ACCGCAAT was tested. Which “PBM E-score” value did it give?
A: 0.252

Q: Which “PBM E-score” value does the source give for CCACAGCA here?
A: -0.135

Q: How did the “PBM E-score” value turn out when ATGCTAAA was run?
A: -0.0141

Q: With CAAAAATC as the sequence, how does the “PBM E-score” value read?
A: -0.0309

Q: How did the “PBM E-score” value turn out when AGCGTAAA was run?
A: 0.00432

Q: Which “PBM E-score” value does the source give for AACACGCG here?
A: 0.0168

Q: With AAAATTTG as the sequence, how does the “PBM E-score” value read?
A: -0.181

Q: How did the “PBM E-score” value turn out when GGTGCGTA was run?
A: 0.0529

Q: How did the “PBM E-score” value turn out when ATGGTGTA was run?
A: -0.118

Q: For GGAGCACA, which “PBM E-score” value is on record?
A: -0.0909

Q: With AGCGCTCC as the sequence, how does the “PBM E-score” value read?
A: -0.0318

Q: Which “PBM E-score” value does the source give for TCTCACCA here?
A: -0.0236

Q: With GCGGATCA as the sequence, how does the “PBM E-score” value read?
A: 0.0055

Q: CATATGCC was tested. Which “PBM E-score” value did it give?
A: 0.0465

Q: ATTTGCCA was tested. Which “PBM E-score” value did it give?
A: -0.255

Q: AGATAACT was tested. Which “PBM E-score” value did it give?
A: -0.0532

Q: Which “PBM E-score” value does the source give for ACCTCCAG here?
A: -0.188

Q: How did the “PBM E-score” value turn out when CGACAGGC was run?
A: -0.026

Q: Which “PBM E-score” value does the source give for ACGGGTAG here?
A: -0.0642

Q: With ATGTACGA as the sequence, how does the “PBM E-score” value read?
A: 0.0106

Q: With CAGGAACG as the sequence, how does the “PBM E-score” value read?
A: -0.0937

Q: With AAAAGCGT as the sequence, how does the “PBM E-score” value read?
A: -0.00882

Q: AAGCTATC was tested. Which “PBM E-score” value did it give?
A: -0.0782

Q: Which “PBM E-score” value does the source give for GCCATGAC here?
A: 0.00819

Q: With GTAATTCA as the sequence, how does the “PBM E-score” value read?
A: 0.0673

Q: CTGAGAGA was tested. Which “PBM E-score” value did it give?
A: -0.118

Q: For ATCAGTGC, which “PBM E-score” value is on record?
A: -0.161

Q: For GTAACCGA, which “PBM E-score” value is on record?
A: 0.082

Q: How did the “PBM E-score” value turn out when ATGAAGTG was run?
A: -0.0718

Q: CCGGAAGA was tested. Which “PBM E-score” value did it give?
A: 0.153

Q: How did the “PBM E-score” value turn out when AGTAAGGC was run?
A: 0.0229

Q: GAGTTGGC was tested. Which “PBM E-score” value did it give?
A: -0.0115

Q: For CCCCAATA, which “PBM E-score” value is on record?
A: -0.102

Q: How did the “PBM E-score” value turn out when AAACCATC was run?
A: 0.0667

Q: AACCGACG was tested. Which “PBM E-score” value did it give?
A: 0.286

Q: How did the “PBM E-score” value turn out when AGTTCTAA was run?
A: -0.0599

Q: With AGTGACTC as the sequence, how does the “PBM E-score” value read?
A: -0.17
